# In article PMC12136788:
# Some of the results follow.
# T1: UNK ZnF1-3 (human, UniProt Q9C0B0 31-174)
# T1 sequence: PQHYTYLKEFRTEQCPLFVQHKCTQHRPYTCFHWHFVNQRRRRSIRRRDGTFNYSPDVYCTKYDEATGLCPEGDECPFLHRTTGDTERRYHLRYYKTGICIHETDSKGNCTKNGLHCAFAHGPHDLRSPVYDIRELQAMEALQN
# B1: chr10:28884852:28884853:+_ENSG00000095787_ENST00000354911|hu_hu|motif|central (ssRNA)
# RNA: GGGAGUUCUACAGUCCGACGAUCAGAUGCUCCAUUAGCAUCAAAUGAUUUCUUUGGCUGGUGAUCAGACUGUAGCGUAAAUGGACGGGAAGGAACAGUGCUUGGGGUAGCAGUUGGAUGAACCACUGGUUUGAUGGGGUGCUGCAACAGAGGAUUGAGCAUCA
# B2: chr3:105756983:105756984:-_ENSMUSG00000000563_ENSMUST00000118209|mus_hu|FALSE|FALSE (ssRNA)
# RNA: GGGAGUUCUACAGUCCGACGAUCAGCAAAGUCUGCAACAAAGGGACCAUAUUUUUUAAUUCCAUAGACCAUUACACCUAGUACUGAUAGGGCAGUGAAGGUCUCUGCGCUAAUCACAUAUAUUUCUUUGGAUAAAGCGUACAACAACAGAGGAUUGAGCAUCA
# B3: chr7:56127271:56127272:+_ENSG00000146731_ENST00000540286|hu_hu|FALSE|FALSE (ssRNA)
# RNA: GGGAGUUCUACAGUCCGACGAUCAUACUCAUAUACAAGUCCUGCAUGUCCCAAGCAGUCAGGACUUAGGUCGUCAAAAGAAUUCAGGGCUACCCCACCACAAGCAAGAGUCAGCCUCUCCAUAUUUCUCCUUUUAGCUCUGCGCAACAGAGGAUUGAGCAUCA
# B4: chr8:74746221:74746222:+_ENSMUSG00000003039_ENSMUST00000003123|mus_mus|FALSE|FALSE (ssRNA)
# RNA: GGGAGUUCUACAGUCCGACGAUCUUUAAUCAAGUCUCAGAAAACCUGGUCUCAGCAGAUUCACCAGCCAGGUGUAAAACAUUCUAGAAAACACGGAGGGACAAGACAAAACACUGUCAACCUGGCCUUCUGCCUUUUUGCACCCAACAGAGGAUUGAGCAUCA
# B5: chr1:186330979:186330980:-_ENSG00000047410_ENST00000367478|hu_mus|FALSE|FALSE (ssRNA)
# RNA: GGGAGUUCUACAGUCCGACGAUCGUAGAGAUUAGAGAGCUUUAUGUGAGCAUUUAACUCAUUGUGGAAUUUCUCUUCCAUACUGGCCUGCUGUUCUUUGGCCUCUUUUAAUUUUGUCAACAAAUCCUCUACAUGUUUCUGAAGCAACAGAGGAUUGAGCAUCA
# B6: 62644853_62644973_1213_CDS_ENSMUSG00000032244_ENSMUST00000034775|mouse|control|control (ssRNA)
# RNA: GGGAGUUCUACAGUCCGACGAUCGUUCCUACACUCAGUUCUGUUCCCAUAAGCAUGGAUGGGUGGGAGAACCUCUUUUUCAAGAAUGUUGUCACCAUCCUGAAAUCUCUCCAACAUAGCUAAAUAUAAAUAGUGGUAUGUCUUCAACAGAGGAUUGAGCAUCA
# B7: chr16:33771563:33771564:+_ENSMUSG00000075254_ENSMUST00000152782|mus_mus|motif|central (ssRNA)
# RNA: GGGAGUUCUACAGUCCGACGAUCAGACUUAGAGUGGAUAUAAGUAUAAAAAAUAACCAAAUUCUUACAAAUAACACAUUGCGGCGGCAGUACUGAAUAAUUAUUGGAGGUGACAUUAUAAUACAACUUUAAAUAACAUUCUCACAACAGAGGAUUGAGCAUCA
# B8: chr4:25749455:25749456:-_ENSG00000091490_ENST00000264868|hu_hu|hu_hu_hu_mus_False|1_68 (ssRNA)
# RNA: GGGAGUUCUACAGUCCGACGAUCGCACUAUGACCUCUAGAAAAAUCCACAGGGGGAAAAAAUGUAAACCAAUUUACAAUGUUAUCGCCUUCCCUGUGUGUGGAGUGUUUGUCUCAAGGCUCCUUCUAGCUGCUGGACUGCUAGCAACAGAGGAUUGAGCAUCA
# B9: 83845325_83845445_827_3pUTR_ENSG00000230989_ENST00000433866|human|control|control (ssRNA)
# RNA: GGGAGUUCUACAGUCCGACGAUCACUCUAAAGUCUACAAACAUCUUACUUCACCAAGACUAACUAUAAUUGAAGGGUUUACUAUUUGUUUAAUAAAAAAUCACACAUCAACUUUUAUCCAAACAGCAACUACUACAAAAGGAACAACAGAGGAUUGAGCAUCA
# B10: chr9:95013113:95013114:-_ENSG00000196305_ENST00000443024|hu_hu|hu_hu_hu_mus_False|58_98 (ssRNA)
# RNA: GGGAGUUCUACAGUCCGACGAUCCUCAGUCAGAAAGGGUGUGUAGGGGGCCAUCAGUCUGCACAGAGAAAGCAGGACACUAAACAAUGUCUCCAGAGCCAUGACACAGUCUUCCACCCCACUCUCACCCUUUAACCUCCUCCUCAACAGAGGAUUGAGCAUCA
# B11: chr1:155751701:155751702:+_ENSMUSG00000026473_ENSMUST00000086199|mus_mus|motif|central (ssRNA)
# RNA: GGGAGUUCUACAGUCCGACGAUCAAACAUGGCAACAGGAUGGAGGUACAUGUCGCUGUUGGAGCCUUCAGACUGAAAGGUACGGGAGCCAUCAAAGUUCCACUCAGGUAACUCUUCCACACACUUGGGCUCACAGUCCAGGGUCAACAGAGGAUUGAGCAUCA
# B12: chr4:103533647:103533648:+_ENSG00000109320_ENST00000505458|hu_hu|FALSE|FALSE (ssRNA)
# RNA: GGGAGUUCUACAGUCCGACGAUCCCCCAGACCUAAUUUCUGCGCCAGAGUAGCCCAGUUUUUGUCUGGAUCAGGAAUUUCUAGUAACUUAUACAGCUGCAGCUUCACAUCUUCAGCCAGCUGUUUCAUGUCUCCUUGUGCUAGCAACAGAGGAUUGAGCAUCA
# B13: 72664031_72664151_698_5pUTR_ENSMUSG00000022883_ENSMUST00000023600|mouse|control|control (ssRNA)
# RNA: GGGAGUUCUACAGUCCGACGAUCUCUGAAGAGGCUCAACCACUUCCAAGGCUCAUCCAAGGCGAACAACAAAGAGCCUAAACCGAGGAGCAGUUGUGCGGUUUCCUGCCUCCACAGUCCUGCUGAGCCUCCCGGCGUGCGCCUCAACAGAGGAUUGAGCAUCA
# B14: chr11:77336104:77336105:-_ENSG00000074201_ENST00000525064|hu_mus|hu_hu_hu_mus_False|28_48 (ssRNA)
# RNA: GGGAGUUCUACAGUCCGACGAUCCUCACACAUUGCUGUGAACAUCGCCUCCAAUGCUGACUUAUCACUGGGCACAAAUCGAAAUUCAGUAAUAGGUUCAACAUCAUCAUCACUGUCCUCAUCUUCAUCAGAGAGAGGUUCUUUCAACAGAGGAUUGAGCAUCA
# Target: T1, UNK ZnF1-3
# Test: nsRBNS (natural sequence RNA bind-n-seq); RBNS binding buffer (assumed for nsRBNS): 25 mM Tris pH 7.5, 150 mM KCl, 3 mM MgCl2, 0.01% Triton X-100, 500 ug/ml BSA, 20 U/ml SUPERase-In, 4 C; UNK is unkempt and MSI1 is Musashi-1; names of the RNAs are library labels; protein concentration not given here; high values mean tight binding
row,Binder,binding signal [enrichment R]
1,B1,1.2
2,B2,1.85
3,B3,0.999
4,B4,1.17
5,B5,0.594
6,B6,0.764
7,B7,2.22
8,B8,0.84
9,B9,0.878
10,B10,1.2
11,B11,1.28
12,B12,0.569
13,B13,0.739
14,B14,0.92
